Test results taken from PMC2363329, “Interaction of the PA2G4 (EBP1) protein with ErbB-3 and regulation of this binding by heregulin” (British Journal of Cancer, 2000).
No constants are given. Whether binding was seen depends on the method and setting. In cells and extracts the contact can be indirect. Some results given as binding are weak or reduced against the parent protein; the word gives no strength. Tags and fused reporters may be left off the sequences shown.

Experiments:
[1] = target: T1, Alanine scanning mutant A1 of GST/ErbB-3 (665-690) (rat) (UniProt Q62799); test: pull-down; equal amounts of purified GST or GST-erbB3 fusion proteins incubated with in vitro translated 35S-labelled Ebp1 at 4C for 2 h; SDS-PAGE and autoradiography; only the target purified
T1 sequence: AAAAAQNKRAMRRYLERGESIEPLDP

[2] = target: T2, Alanine scanning mutant A2 of GST/ErbB-3 (665-690) (rat) (UniProt Q62799); test: as above
T2 sequence: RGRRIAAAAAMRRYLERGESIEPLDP

[3] = target: T3, Alanine scanning mutant A3 of GST/ErbB-3 (665-690) (rat) (UniProt Q62799); test: as above
T3 sequence: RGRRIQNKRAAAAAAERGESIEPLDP

[4] = target: T4, Alanine scanning mutant A4 of GST/ErbB-3 (665-690) (rat) (UniProt Q62799); test: as above
T4 sequence: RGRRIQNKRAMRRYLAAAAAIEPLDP

[5] = target: T5, GST-ErbB-3 (aa 665-1339) fusion protein (rat) (UniProt Q62799); test: as above
T5 sequence: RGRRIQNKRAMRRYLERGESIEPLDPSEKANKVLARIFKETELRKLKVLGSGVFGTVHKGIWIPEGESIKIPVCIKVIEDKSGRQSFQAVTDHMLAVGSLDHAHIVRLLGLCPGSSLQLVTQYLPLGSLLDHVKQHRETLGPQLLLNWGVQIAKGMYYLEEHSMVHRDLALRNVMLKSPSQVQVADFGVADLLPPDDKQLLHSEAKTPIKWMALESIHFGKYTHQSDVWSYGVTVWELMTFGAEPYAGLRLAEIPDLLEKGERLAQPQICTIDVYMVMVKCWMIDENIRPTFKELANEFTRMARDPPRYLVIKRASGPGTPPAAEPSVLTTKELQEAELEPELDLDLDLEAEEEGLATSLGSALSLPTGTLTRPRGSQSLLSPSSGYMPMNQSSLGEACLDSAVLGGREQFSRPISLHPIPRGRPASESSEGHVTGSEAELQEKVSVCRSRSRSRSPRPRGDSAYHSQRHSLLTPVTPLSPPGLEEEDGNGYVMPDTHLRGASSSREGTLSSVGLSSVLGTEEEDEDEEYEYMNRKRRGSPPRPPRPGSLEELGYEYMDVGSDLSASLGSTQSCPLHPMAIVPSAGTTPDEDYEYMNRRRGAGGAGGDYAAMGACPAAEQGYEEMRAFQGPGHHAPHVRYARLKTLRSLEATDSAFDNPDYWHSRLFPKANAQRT

[6] = target: T6, GST-ErbB-3 (aa 665-690) (rat); test: as above
T6 sequence: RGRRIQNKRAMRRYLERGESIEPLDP

[7] = target: T7, GST-ErbB3 (aa 756-1339) (rat) (UniProt Q62799); test: as above
T7 sequence: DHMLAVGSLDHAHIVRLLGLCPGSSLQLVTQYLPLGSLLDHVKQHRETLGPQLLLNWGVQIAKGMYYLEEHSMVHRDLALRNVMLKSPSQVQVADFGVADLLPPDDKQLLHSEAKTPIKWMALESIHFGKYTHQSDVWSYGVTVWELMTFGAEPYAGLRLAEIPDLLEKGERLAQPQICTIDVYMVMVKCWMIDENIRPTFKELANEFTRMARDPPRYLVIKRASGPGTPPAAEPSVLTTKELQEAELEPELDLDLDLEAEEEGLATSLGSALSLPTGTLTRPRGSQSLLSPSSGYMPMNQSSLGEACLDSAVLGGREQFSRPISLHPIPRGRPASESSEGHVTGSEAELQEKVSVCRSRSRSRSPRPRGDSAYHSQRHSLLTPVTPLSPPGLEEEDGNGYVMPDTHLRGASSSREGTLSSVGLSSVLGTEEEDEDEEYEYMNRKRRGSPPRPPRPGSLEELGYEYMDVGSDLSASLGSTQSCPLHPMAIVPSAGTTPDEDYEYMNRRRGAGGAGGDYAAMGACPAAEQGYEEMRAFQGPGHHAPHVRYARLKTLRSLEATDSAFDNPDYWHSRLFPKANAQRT

[8] = target: T8, GST/erbB3 (665-711) (rat) (UniProt Q62799); test: as above
T8 sequence: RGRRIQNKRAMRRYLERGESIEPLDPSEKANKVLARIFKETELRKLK

[9] = target: T9, GST/erbB3 (665-732) (rat) (UniProt Q62799); test: as above
T9 sequence: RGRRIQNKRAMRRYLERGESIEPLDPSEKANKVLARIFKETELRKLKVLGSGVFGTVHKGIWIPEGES

[10] = target: T10, GST/erbB3 (665-756) (rat) (UniProt Q62799); test: as above
T10 sequence: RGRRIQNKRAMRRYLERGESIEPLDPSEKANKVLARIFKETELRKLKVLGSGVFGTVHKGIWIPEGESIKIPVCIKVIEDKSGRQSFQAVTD

[11] = target: T6, GST-ErbB-3 (aa 665-690) (rat); test: pull-down; competition: in vitro translated 35S-Ebp1 incubated with GST-ErbB-3 (aa 665-690) in the presence of 75-, 250-, 500- or 1000-fold excess of ErbB-3 peptide (aa 665-690); the pair that is blocked; only the target purified

binding [1]: no binding | binding [2]: no binding | binding [3]: no binding | binding [4]: binds | binding [5]: binds | binding [6]: binds | binding [7]: no binding | binding [8]: binds | binding [9]: binds | binding [10]: binds | binding [11]: binds
B1: 35S-labelled in vitro translation product of pBK/Ebp1 (amino acids 1-373 of Ebp1) (domain or fragment, UniProt Q9UQ80 1-373)
chain: MSGEDEQQEQTIAEDLVVTKYKMGGDIANRVLRSLVEASSSGVSVLSLCEKGDAMIMEETGKIFKKEKEMKKGIAFPTSISVNNCVCHFSPLKSDQDYILKEGDLVKIDLGVHVDGFIANVAHTFVVDVAQGTQVTGRKADVIKAAHLCAEAALRLVKPGNQNTQVTEAWNKVAHSFNCTPIEGMLSHQLKQHVIDGEKTIIQNPTDQQKKDHEKAEFEVHEVYAVDVLVSSGEGKAKDAGQRTTIYKRDPSKQYGLKMKTSRAFFSEVERRFDAMPFTLRAFEDEKKARMGVVECAKHELLQPFNVLYEKEGEFVAQFKFTVLLMPNGPMRITSGPFEPDLYKSEMEVQDAELKALLQSSASRKTQKKKKKK
modifications: 35S-labelled
